Data published in PubChem BioAssay AID485344 (National Center for Advancing Translational Sciences (NCATS), 2010).
The campaign covered roughly 340,000 compounds. About 6,900 (2%) were called active. Cut-off read from the data, not from the text of the source: active = inhibition above about 30%; inactive = below that, where a call was filed. Only a part is listed here, and it is no random draw. Where no call is shown, the source filed none.

The molecules below were run against D(2) dopamine receptor (Homo sapiens) (UniProt P14416) (assay: HTS Assay for Allosteric Antagonists of the Human D2 Dopamine Receptor: Primary Screen for Antagonists). Conditions: HEK293 TREx D2 cells, calcium flux, dopamine EC80; at 10 µM; stronger effect = higher value.
Sequence of UniProt P14416 (P14416 whole entry, looked up): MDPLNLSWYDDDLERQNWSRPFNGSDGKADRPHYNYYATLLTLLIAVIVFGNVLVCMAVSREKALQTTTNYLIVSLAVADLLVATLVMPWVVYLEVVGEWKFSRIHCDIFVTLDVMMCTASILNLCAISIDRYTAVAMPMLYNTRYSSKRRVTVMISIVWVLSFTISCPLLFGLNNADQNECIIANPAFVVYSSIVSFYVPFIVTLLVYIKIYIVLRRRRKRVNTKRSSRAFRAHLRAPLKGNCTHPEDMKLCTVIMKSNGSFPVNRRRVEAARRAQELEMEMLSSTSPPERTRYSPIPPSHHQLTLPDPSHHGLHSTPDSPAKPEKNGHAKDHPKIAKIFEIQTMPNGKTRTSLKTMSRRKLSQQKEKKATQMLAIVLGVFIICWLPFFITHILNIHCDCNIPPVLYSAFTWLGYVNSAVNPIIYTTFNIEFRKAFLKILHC
In short: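 Read-out: kinetic calcium fluorescence (1 cycle/s) in inducible HEK293 T-REx D2 cells after an EC80 dopamine addition that followed 180 s compound preincubation. Loss of the dopamine response indicates antagonism.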
Note: 0% is about no effect.

Row | Compound | inhibition
1 | O=C(Nc1nc2ccccc2s1)c1ccc(S(=O)(=O)N2CCCC2)cc1 | -2.86%
2 | Cc1ccc(N2CCN(CC(O)COC3CCCCC3)CC2)cc1 (stereo not drawn) | active: 63.4%
3 | O=S(=O)(c1ccc2nc(NCc3ccccc3Cl)ccc2c1)N1CCCCC1 | -4.2%
4 | CCOc1ccc(C2C(=O)N(C3CCCCCC3)CC(=O)N2CCc2ccc(OC)c(OC)c2)cc1OC (stereo not drawn) | -3.27%
5 | O=C(Oc1ccc(Cl)c2ccccc12)N1CCCCC1 | active: 55.9%
6 | O=C(Cn1cnc2c(oc3ccccc32)c1=O)Nc1ccc(F)cc1F | 20.2%
7 | O=C(CSc1nc2c(oc3ccccc32)c(=O)n1Cc1ccco1)Nc1ccccc1Cl | -4.91%
8 | O=C(Cn1ncc2c3ccccc3n(Cc3cccc(Cl)c3)c2c1=O)NCc1cccs1 | 3.83%
9 | C/C(=N\NC(=O)c1cc2ccccc2cc1O)c1ccc2c(c1)OCO2 | active: 33.3%
10 | CCc1ccc(OCc2nc(-c3ccc(OC)cc3)no2)c(Br)c1 | -5.26%
11 | CCCCN(C)S(=O)(=O)c1ccc(C(=O)Nc2sc3c(c2C(N)=O)CC(C)(C)NC3(C)C)cc1 | 24.2%
12 | CCCc1ccc(-c2ccc(C(=O)Oc3ccc(OCC)cc3)cc2)nc1 | -4.56%
13 | Cc1ccc(CCNC(=O)CS(=O)Cc2nc(-c3ccccc3C)oc2C)cc1 (stereo not drawn) | -18.7%
14 | Cc1c(CCC(=O)NCc2cccc(Cl)c2)c(=O)oc2c(C)c(O)ccc12 | -8.57%
15 | CCN(Cc1ccccc1)C(=O)Cn1c(=O)n(-c2ccc(Cl)cc2)c(=O)c2c(C)c(C(=O)N(C)C)sc21 | 6.06%
16 | CCOCCCN1C(=O)c2[nH]nc(-c3ccccc3O)c2C1c1ccc(CC)cc1 (stereo not drawn) | 4.97%
17 | COC(=O)C(C)Sc1nnc(SC(C)C(=O)OC)s1 (stereo not drawn) | active: 39.7%
18 | CCCCc1nn2c(=O)cc(COC(=O)c3ccc(NC(=O)CCc4ccccc4)cc3)nc2s1 | -14%
19 | CCOC(=O)c1oc2c(c1C)-c1nn(Cc3c(F)cccc3Cl)cc1CC2 | 14.2%
20 | O=C(NC1CC1)c1cc2c(s1)-c1ccccc1OC2 | active: 34.1%
21 | Cc1cccc(NC(=O)C2CCN(c3nc4ccccc4[nH]3)CC2)c1C | -9.68%
22 | O=C(Nc1ccc2nc(SCC(=O)N3CCCC3)sc2c1)c1cccc(Br)c1 | -9.86%
23 | Cc1ccc(C)c(CNC(=O)CCn2cccn2)c1 | 12.5%
24 | Cc1cc(C)cc(N2C(=O)CSC23C(=O)N(CC(=O)Nc2ccc(F)cc2F)c2ccccc23)c1 (stereo not drawn) | -2.07%
25 | COc1ccccc1C(=O)N1CCC(c2noc(-c3ccc(S(=O)(=O)N4CCCC4)cc3)n2)CC1 | -1.04%

Row | Compound | inhibition
26 | COc1cccc(CNC(=O)c2oc3c(c2C)-c2nn(Cc4cccc(Cl)c4)cc2CC3)c1OC | 17.5%
27 | O=C(NCCc1ccc(Cl)cc1)c1ccc(CS(=O)Cc2ccccc2Cl)o1 (stereo not drawn) | -21%
28 | COc1ccc(NC(=O)Cn2c(SCc3ccc(F)cc3)nc3cccnc32)cc1OC | -3.27%
29 | CC(C)N(C)C1CCN(S(=O)(=O)c2ccc3[nH]c(=O)ccc3c2)CC1 | -15.5%
30 | COc1cc(CN2CCN(c3ccccc3F)CC2)cc(OC)c1O | active: 69.8%
31 | C=CCOc1ccccc1CN1CCC(C(=O)Nc2cccc(-c3ccn[nH]3)c2)CC1 | active: 92.4%
32 | Cc1nc2ccc(S(=O)(=O)N(CC(=O)Nc3cccc(F)c3)Cc3ccccc3)cc2s1 | 8.16%
33 | O=C1CC(c2ccccc2)c2c(n3ncnc3[nH]c2=O)N1 (stereo not drawn) | -16.3%
34 | CC(C)CCn1c(=O)c2sccc2n2c(CCCC(=O)NCCc3ccccc3)nnc12 | 0.693%
35 | Cc1cc(=O)n2nc(N(C)CC(=O)NCc3cccc(Br)c3)sc2n1 | -2.56%
36 | CCCCN(C(=O)c1ccc(C#N)cc1)c1c(N)n(CCC)c(=O)[nH]c1=O | active: 42%
37 | O=C(CN1CCOCC1)Nc1ncc(Cc2cccc3ccccc23)s1 | active: 42%
38 | CCOc1ccc(OCC)c(NC(=O)Cn2nc(CC)n3c(cc4sccc43)c2=O)c1 | 16.7%
39 | CCCCN(CC)CCCNC(=O)Cn1ncc2c3ccccc3n(C)c2c1=O | 1.81%
40 | NC(=S)N/N=C/c1ccc2ccccc2c1 | active: 48.1%
41 | Cc1ccc(NC(=O)CN2CCSc3ccc(S(=O)(=O)N4CCCC4)cc32)cc1 | 0.539%
42 | CCN(Cc1nc(-c2ccc(OC)cc2)oc1C)S(=O)(=O)c1ccc(C)cc1 | 6.33%
43 | CCOC(=O)Cc1ccc(NC(=O)N2CCC(CN3CCCCCC3)CC2)cc1 | -4.15%
44 | CCOc1ccccc1Nc1nnc(-c2cc3cc(OC)ccc3oc2=O)s1 | 2.37%
45 | CCc1ccc(Oc2c(C(F)(F)F)oc3c(CN4CCC(C)CC4)c(O)ccc3c2=O)cc1 | -6.4%
46 | CCCCN(CC)C(=O)c1cc2c(=O)n3cccc(C)c3nc2n1C | -5.42%
47 | Cc1ccc(S(=O)(=O)CC(=O)Nc2sc3c(c2C(N)=O)CCCC3)cc1 | 25.6%
48 | CCC(=O)c1ccccc1OCCN1CCN(Cc2ccccc2)CC1 | active: 110%
49 | CC(C)CCNC(=O)Nc1ccc2c(c1)N(Cc1ccccc1)C(=O)c1ccccc1S2 | -6.32%
50 | Cc1ccccc1Nc1c(-c2ccc(Br)o2)nc2ccc(Cl)cn12 | 17.4%

Row | Compound | inhibition
51 | CCc1ccc(NC(=O)Cc2c(C(=O)O)c(C)cn2C)cc1 | -11.7%
52 | COc1cc(OC)c(NC(=O)c2cc(C)nc3c2c(C)nn3-c2ccc(C)cc2)cc1Cl | -7.68%
53 | CCOc1ccc(-c2nn(CC(=O)NC3CCCC3)c3c2cnc2ccc(C)cc23)cc1 | -1.15%
54 | COc1ccc(CCNC(=O)c2ccc3c(c2)N(Cc2ccc(Cl)cc2)C(=O)c2ccccc2S3)cc1OC | 14.2%
55 | Cc1ccc(NC(=O)CCN2CCN(CCO)CC2)cc1C | -7.94%
56 | COc1ccc(-c2nc(C)c(CCNS(=O)(=O)c3ccc(F)cc3)s2)cc1OC | -13.8%
57 | COC(=O)c1ccccc1NC(=O)c1cn2c3c(ccc(Cl)c3c1=O)OC(C)C2 (stereo not drawn) | 3.35%
58 | CC(C)c1ccc(CN(Cc2ccco2)c2cnc(S(C)(=O)=O)nc2C(=O)Nc2ccccc2)cc1 | 6.19%
59 | Cc1c(-c2nnc(SCC(=O)Nc3ccc(Br)cc3)o2)nnn1-c1ccc(F)cc1 | -16.1%
60 | COc1ccc(C2(N3CCN(c4cccc(C)c4C)CC3)C(=O)c3ccccc3C2=O)cc1 | -4.61%
61 | COC(=O)c1ccn(-c2nc(-c3ccc(Cl)cc3)cc(C(F)(F)F)n2)n1 | 7.66%
62 | Cc1ccc(C(=O)Nc2sc3c(c2C(=O)O)CCCCC3)o1 | active: 32.1%
63 | CCOc1ccc(CNCCSc2nnnn2C)cc1OC | -10.6%
64 | CCc1cccc(C)c1NC(=O)c1cc(S(=O)(=O)N2CCC3(CC2)OCCO3)ccc1F | -11.9%
65 | Cc1oc(-c2ccc(Cl)cc2)nc1CN1CCCC(C(=O)NCCc2ccccc2)C1 (stereo not drawn) | 4.98%
66 | CC(=O)c1ccc(NC(=O)CSc2c(C(C)C)cnc3c2c(=O)n(C)c(=O)n3C)cc1 | -4.83%
67 | Cc1ccc(S(=O)(=O)N2CCCc3cc(NS(=O)(=O)c4ccc(C)c(C)c4)ccc32)cc1 | 7.84%
68 | Cc1ccc2oc(-c3cccc(NC(=O)c4ccc(N5CCC(C)CC5)c([N+](=O)[O-])c4)c3)nc2c1 | 7.5%
69 | COc1ccc(Nc2nc(Nc3ccc(OC)cc3OC)nc(N3CCOCC3)n2)c(OC)c1 | 16%
70 | Nc1nnc(SCC(=O)Nc2cc(C(F)(F)F)ccc2N2CCOCC2)s1 | active: 86.8%
71 | CCOc1ccc(C(=O)Nc2ccc(-c3nnc4n3CCCCC4)cc2)cc1OCC | -11.2%
72 | Cc1ccccc1CC(=O)NC1CCN(Cc2ccccc2)CC1 | active: 56.1%
73 | Cc1cccc2c(=O)cc(CSCC(=O)Nc3ccc(Cl)cc3)[nH]c12 | 2.21%
74 | COc1ccc(C)cc1NC(=O)CCN1CCN(c2ccccc2F)CC1 | active: 79.8%
75 | CCOC(=O)c1cccc(OCC(O)CNCCOc2ccccc2F)c1 (stereo not drawn) | active: 82.6%

Row | Compound | inhibition
76 | Cc1ccc(Cn2c(=O)n(Cc3ccccc3)c(=O)c3c(C)c(C)sc32)cc1 | 3.01%
77 | CCOC(=O)Cn1c(=O)n(C2CCCCC2)c2nc(-c3ccc(OC)cc3)nc(C(N)=O)c21 | 14.9%
78 | COc1ccc(Cc2nc3ccc(C(=O)NCCc4ccc(OC)c(OC)c4)cc3o2)cc1 | 10.7%
79 | Cc1cc(C)cc(NC(c2nnc(-c3cccc(F)c3)o2)c2ccc(F)cc2Cl)c1 (stereo not drawn) | 9.75%
80 | Cn1c(=O)n(C)c2cc(CNCc3ccccc3)ccc21 | 5.38%
81 | COc1ccc(S(=O)(=O)N2CCN(c3ccccc3)CC2)cc1-c1noc(C)n1 | -12.4%
82 | O=C(Cn1c(=O)c(C(F)(F)F)nc2ccccc21)Nc1ccc(Br)cc1F | -5.56%
83 | Cn1nc(-c2ccccc2F)c2cc(C(=O)Nc3cc(F)ccc3F)sc21 | 12.5%
84 | O=C(c1cnc2c(c1)COc1ccccc1-2)c1ccccc1O | -3.6%
85 | Cc1ccccc1Cn1cc(CCC(=O)NCc2cccc(Br)c2)c2ccccc21 | 20.3%
86 | COc1ccc(S(=O)(=O)NCC(c2ccco2)N2CCN(c3ccc(F)cc3)CC2)cc1 (stereo not drawn) | 8.34%
87 | CC(C)(C)NC(=O)CSc1nc(-c2ccc(F)cc2)cc(C(F)(F)F)n1 | -7.28%
88 | O=C(Nc1cccc(C(F)(F)F)c1)C1CCN(S(=O)(=O)c2ccc(N3CCCC3=O)cc2)CC1 | active: 64.4%
89 | O=C(NCc1ccccc1)c1ccc2c(c1)N(Cc1ccccc1)C(=O)c1ccccc1S2(=O)=O | 14.4%
90 | CC(C)c1cnc2c(c1SCC(=O)c1ccccc1)c(=O)n(C)c(=O)n2C | -2.95%
91 | CCCCOc1cccc(C(=O)N(Cc2ccc(Br)o2)C2CCS(=O)(=O)C2)c1 (stereo not drawn) | 0.384%
92 | Cc1cccc(C(=O)Nc2ccc(C(=O)OCc3cc(=O)n4c(C)csc4n3)cc2)c1 | 4.12%
93 | NC(=O)CSc1oc(-c2cccs2)nc1S(=O)(=O)c1ccc(Br)cc1 | -6.75%
94 | Cc1cc(F)ccc1NC(=O)C1CCN(S(=O)(=O)c2ccc3c(c2)CCCC(=O)N3)CC1 | -6.78%
95 | O=C(Nc1cccc(Cl)c1)C1CCN(S(=O)(=O)Cc2ccccc2)CC1 | 25.2%
96 | CC1=C(C(=O)NCc2ccc(Cl)cc2)C2(CCC(C)CC2)OC1=O (stereo not drawn) | 1.33%
97 | NC1=NC(c2cc(F)cc(F)c2)n2c(nc3ccccc32)N1 (stereo not drawn) | 0.815%
98 | Cc1ccc(Cl)cc1NC(=O)CC1Sc2ccccc2NC1=O (stereo not drawn) | -1.46%
